Patent US20220313819A1, “COMBINATION THERAPY FOR THE TREATMENT OF SOLID AND HEMATOLOGICAL CANCERS” (Arch Oncology, Inc., priority 2019, published 2022)

Columns and labels:
[1] = target: T1, human CD47 on hRBCs (Homo sapiens, UniProt Q08722); assay: Binding to freshly isolated human red blood cells, flow cytometry; conditions: result in words
T1 construct: freshly isolated human red blood cells (hRBCs), which display CD47 on their surface; from tissue; host or cells: human blood, washed red blood cells
Experimental: The binding of chimeric (murine-human) and humanized antibodies of the present disclosure was determined by ELISA using OV10 cells transfected with human CD47 (OV10 hCD47) or using freshly isolated human red blood cells (hRBCs), which display CD47 on their surface (Kamel et al. (2010) Blood. Transfus. 8(4):260-266).
Binding activities of chimeric and humanized VLX4, VLX8, and VLX9 mAbs to human CD47 on hRBCs were also determined using flow cytometry.

[2] = system: hRBCs; assay: Hemagglutination of washed human red blood cells; format: cell-based; conditions: humanized mAbs, Table 2
Experimental: Hemagglutination of hRBCs was assessed following incubation of hRBCs with various concentrations of chimeric and humanized VLX4, VLX8, and VLX9 mAbs in vitro essentially as described by Kikuchi et al. Biochem Biophys Res. Commun (2004) 315:912-918. Blood was obtained from healthy donors, diluted (1:50) in PBS/1 mM EDTA/BSA and washed 3 times with PBS/EDTA/BSA. hRBCs were added to U-bottomed 96 well plates with equal volumes of the antibodies (75 μl of each) and incubated for 3 hrs at 37° C. and overnight at 4° C.

Molecule | binding to human RBCs compared with OV10 hCD47 tumor cells [1] | HA hRBC [2]
VLX8hum_06 IgG2: humanized VLX8 anti-CD47 mAb, IgG2 (antibody) heavy: QVQLVQSGAEVKKPGASVKVSCKASGYSFTNYYIHWVRQAPGQGLEWMGYIDPLNGDTTYNQKFKGRVTMTRDTSTSTVYMELSSLRSEDTAVYYCARGGKRAMDYWGQGTLVTVSSASTKGPSVFPLAPCSRSTSESTAALGCLVKDYFPEPVTVSWNSGALTSGVHTFPAVLQSSGLYSLSSVVTVPSSNFGTQTYTCNVDHKPSNTKVDKTVERKCCVECPPCPAPPVAGPSVFLFPPKPKDTLMISRTPEVTCVVVDVSHEDPEVQFNWYVDGVEVHNAKTKPREEQFNSTFRVVSVLTVVHQDWLNGKEYKCKVSNKGLPAPIEKTISKTKGQPREPQVYTLPPSREEMTKNQVSLTCLVKGFYPSDIAVEWESNGQPENNYKTTPPMLDSDGSFFLYSKLTVDKSRWQQGNVFSCSVMHEALHNHYTQKSLSLSPGK light: DIQMTQSPSSLSASVGDRVTITCRASQSISNYLNWYQQKPGKAPKLLIYYTSRLYSGVPSRFSGSGSGTDFTLTISSLQPEDFATYYCQQGNTLPWTFGQGTKVEIKRTVAAPSVFIFPPSDEQLKSGTASVVCLLNNFYPREAKVQWKVDNALQSGNSQESVTEQDSKDSTYSLSSTLTLSKADYEKHKVYACEVTHQGLSSPVTKSFNRGEC | Kd values similar to the values obtained for OV10 hCD47 tumor cells | Yes
VLX8hum_09 IgG2: humanized VLX8 anti-CD47 mAb, IgG2 (antibody) heavy: QVQLVQSGAEVKKPGSSVKVSCKASGYSFTNYYIHWVRQAPGQGLEWMGYIDPLNGDTTYAQKFQGRVTITADESTSTAYMELSSLRSEDTAVYYCARGGKRAMDYWGQGTLVTVSSASTKGPSVFPLAPCSRSTSESTAALGCLVKDYFPEPVTVSWNSGALTSGVHTFPAVLQSSGLYSLSSVVTVPSSNFGTQTYTCNVDHKPSNTKVDKTVERKCCVECPPCPAPPVAGPSVFLFPPKPKDTLMISRTPEVTCVVVDVSHEDPEVQFNWYVDGVEVHNAKTKPREEQFNSTFRVVSVLTVVHQDWLNGKEYKCKVSNKGLPAPIEKTISKTKGQPREPQVYTLPPSREEMTKNQVSLTCLVKGFYPSDIAVEWESNGQPENNYKTTPPMLDSDGSFFLYSKLTVDKSRWQQGNVFSCSVMHEALHNHYTQKSLSLSPGK light: DIQMTQSPSSLSASVGDRVTITCRASQSISNYLNWYQQKPGKAPKLLIYYTSRLYSGVPSRFSGSGSGTDFTLTISSLQPEDFATYYCQQGNTLPWTFGQGTKVEIKRTVAAPSVFIFPPSDEQLKSGTASVVCLLNNFYPREAKVQWKVDNALQSGNSQESVTEQDSKDSTYSLSSTLTLSKADYEKHKVYACEVTHQGLSSPVTKSFNRGEC | Kd values similar to the values obtained for OV10 hCD47 tumor cells | Yes
VLX8hum_07 IgG2: humanized VLX8 anti-CD47 mAb, IgG2 (antibody) heavy: QVQLVQSGAEVKKPGSSVKVSCKASGYSFTNYYIHWVRQAPGQGLEWMGYIDPLNGDTTYNQKFKGRVTITADESTSTAYMELSSLRSEDTAVYYCARGGKRAMDYWGQGTLVTVSSASTKGPSVFPLAPCSRSTSESTAALGCLVKDYFPEPVTVSWNSGALTSGVHTFPAVLQSSGLYSLSSVVTVPSSNFGTQTYTCNVDHKPSNTKVDKTVERKCCVECPPCPAPPVAGPSVFLFPPKPKDTLMISRTPEVTCVVVDVSHEDPEVQFNWYVDGVEVHNAKTKPREEQFNSTFRVVSVLTVVHQDWLNGKEYKCKVSNKGLPAPIEKTISKTKGQPREPQVYTLPPSREEMTKNQVSLTCLVKGFYPSDIAVEWESNGQPENNYKTTPPMLDSDGSFFLYSKLTVDKSRWQQGNVFSCSVMHEALHNHYTQKSLSLSPGK light: DIQMTQSPSSLSASVGDRVTITCRASQSISNYLNWYQQKPGKAPKLLIYYTSRLYSGVPSRFSGSGSGTDFTLTISSLQPEDFATYYCQQGNTLPWTFGQGTKVEIKRTVAAPSVFIFPPSDEQLKSGTASVVCLLNNFYPREAKVQWKVDNALQSGNSQESVTEQDSKDSTYSLSSTLTLSKADYEKHKVYACEVTHQGLSSPVTKSFNRGEC | Kd values similar to the values obtained for OV10 hCD47 tumor cells | Yes
VLX8hum_08 IgG2: humanized VLX8 anti-CD47 mAb, IgG2 (antibody) heavy: EVQLVQSGAEVKKPGESLKISCKGSGYSFTNYYIHWVRQMPGKGLEWMGYIDPLNGDTTYNQKFKGQVTISADKSISTAYLQWSSLKASDTAMYYCARGGKRAMDYWGQGTLVTVSSASTKGPSVFPLAPCSRSTSESTAALGCLVKDYFPEPVTVSWNSGALTSGVHTFPAVLQSSGLYSLSSVVTVPSSNFGTQTYTCNVDHKPSNTKVDKTVERKCCVECPPCPAPPVAGPSVFLFPPKPKDTLMISRTPEVTCVVVDVSHEDPEVQFNWYVDGVEVHNAKTKPREEQFNSTFRVVSVLTVVHQDWLNGKEYKCKVSNKGLPAPIEKTISKTKGQPREPQVYTLPPSREEMTKNQVSLTCLVKGFYPSDIAVEWESNGQPENNYKTTPPMLDSDGSFFLYSKLTVDKSRWQQGNVFSCSVMHEALHNHYTQKSLSLSPGK light: DIQMTQSPSSLSASVGDRVTITCRASQSISNYLNWYQQKPGKAPKLLIYYTSRLYSGVPSRFSGSGSGTDFTLTISSLQPEDFATYYCQQGNTLPWTFGQGTKVEIKRTVAAPSVFIFPPSDEQLKSGTASVVCLLNNFYPREAKVQWKVDNALQSGNSQESVTEQDSKDSTYSLSSTLTLSKADYEKHKVYACEVTHQGLSSPVTKSFNRGEC | Kd values similar to the values obtained for OV10 hCD47 tumor cells | Yes
